Test results reported in PubChem BioAssay AID463173 (ICCB-Longwood Screening Facility, Harvard Medical School, 2010).
Among all 52,000 compounds or so, about 1,700 (3.3%) were called active. No stated cut-off is given here; in the data, active means survival mostly below about 52% (no sharp cut-off); inactive means mostly above about 56%. The list shows a part of the results.

These compounds were tested on Wild type (assay: S. aureus survival, RN4220 and DeltatarO strains – OD600, teichoic acid synthesis inhibitors, primary screen (AID 463173)). Details: S. aureus RN4220 wild type/DeltatarO growth, OD600, 18 h, hits give low values, screened at 18.75 µg/mL (by protocol).

| Structure (SMILES) | survival |
| --- | --- |
| FC(F)(F)c1ccc(C2=Nc3ccccc3NC(c3cccs3)=N2)cc1 | inactive: 111% |
| COc1ccc(F)cc1NC(=O)C1CCN(c2nc(-c3ccc(OC)c(OC)c3)no2)CC1 | inactive: 86% |
| COc1cccc(C(=O)NC(c2ccc(Cl)cc2)c2cc(Cl)c3cccnc3c2O)c1 (centres undefined) | inactive: 71% |
| Cc1ccc(-n2nc(C)c3c(C)cc(=O)n(CC(=O)NCc4ccc(OC(C)C)cc4)c32)cc1 | inactive: 120% |
| O=C(COc1ccc(F)cc1)Nc1cccc(OCc2cc(=O)n3ccccc3n2)c1 | inactive: 73% |
| COc1ccc(Nc2ncc(C(=O)Nc3cc(C)ccc3OC)c3ccccc23)cc1 | inactive: 89% |
| Cc1nc(NC(=O)CSc2nc3cccnc3n2C2CCCCC2)sc1C | inactive: 104% |
| Cn1c(C(=O)NCc2ccc(Cl)cc2)cc2c(=O)n(C)c3ccccc3c21 | inactive: 120% |
| Cc1ccc(Cl)cc1NC(=O)Cn1c(=O)oc2cc(S(=O)(=O)N3CCCCCC3)ccc21 | inactive: 76% |
| Cc1ccc2c(c1)c1c(c(=O)n(-c3ccccc3C)c(=O)n1Cc1ccccc1F)n2C | inactive: 102% |
| COc1ccc(NC(=O)CCc2c(C)nc3c(-c4ccccc4)c(C)nn3c2C)cc1Cl | inactive: 76% |
| Fc1ccc(-n2ncc3c(Nc4ccc(Oc5ccccc5)cc4)ncnc32)cc1 | inactive: 63% |
| Cc1cccc2c1-c1sc(C(=O)NCCCN3CCN(c4cccc(Cl)c4)CC3)cc1CO2 | inactive: 105% |
| Cc1ccc(OCC(=O)Nc2c(Cl)ccc3nsnc23)cc1C | inactive: 56% |
| COc1ccc(-c2noc(C(C)NC(=O)c3ccco3)n2)cc1 (centres undefined) | inactive: 107% |
| Cc1ccc(NC(=O)c2ccc(=O)n(CC(=O)Nc3cc(C)cc(C)c3)n2)cc1 | inactive: 74% |
| COc1cc(C(c2c(C)[nH][nH]c2=O)c2c(C)[nH][nH]c2=O)ccc1OC(=O)c1ccccc1F | inactive: 75% |
| Cc1ccc(NC(=O)C(C)Sc2nnc(C3CCCCC3)n2C)cc1 (centres undefined) | inactive: 108% |
| CC(=O)Nc1cccc(-c2nnc(SCC(=O)c3cc([N+](=O)[O-])ccc3Br)o2)c1 | inactive: 70% |
| O=C(O)/C=C/C(=O)N1CCC(C(=O)c2ccc(F)cc2)CC1 | inactive: 95% |
| CC(=O)c1cccc(Nc2c3c(nc4nc(-c5cccs5)nn24)CCCC3)c1 | inactive: 76% |
| Cc1ccc(C(=O)Oc2ccc(/C=N/NC(N)=O)cc2)cc1 | inactive: 112% |
| S=c1[nH]nc(Cc2ccccc2)n1Cc1ccco1 | inactive: 112% |

| Structure (SMILES) | survival |
| --- | --- |
| CCCN1CCN(CCCNC(=O)c2cnn(-c3ccc(C)cc3)c2-n2cccc2)CC1 | inactive: 121% |
| CC(=O)Nc1ccc(NC(=O)CSc2nnc3c4cc(Br)ccc4n(C)c3n2)cc1 | inactive: 79% |
| O=C(O)C1C2C=CC3(CN(C(c4ccccc4)c4ccccc4)C(=O)C13)O2 (centres undefined) | inactive: 114% |
| COC(=O)c1ccc2oc(=O)c(S(=O)(=O)c3ccc(C)cc3)cc2c1 | inactive: 86% |
| CCCC(=O)Nc1cccc(-c2nc3cc(C)c(C)cc3o2)c1C | inactive: 86% |
| COc1ccc(C(=O)Nc2nccs2)cc1OC | inactive: 104% |
| Cc1ccc(CNC(=O)C2CCN(c3nc4ccc(C)cc4[nH]3)CC2)cc1 | inactive: 131% |
| COc1cc(OC)c(NC(=O)c2cnc(N3CCCC3)nc2C)cc1Cl | inactive: 73% |
| CCSc1ncc(Cl)c(C(=O)Nc2sc(C(C)=O)c(C)c2C(=O)OC)n1 | inactive: 76% |
| Cc1ccc2c(c1)c1c(c(=O)n(-c3cccc(Cl)c3)c(=O)n1C)n2C | inactive: 58% |
| COc1ccc(CNC(=O)c2ccc(Sc3ccc(Cl)cc3)c(NC(C)=O)c2)c(OC)c1 | inactive: 73% |
| O=C1CN(C(=O)COc2ccc(Cl)cc2Cl)C(c2ccc(F)cc2)c2cc(F)ccc2N1 (centres undefined) | inactive: 43% |
| COc1ccc(C(=O)c2oc3ccccc3c2NC(=O)c2nc(SC)ncc2Cl)cc1Cl | inactive: 91% |
| CCOC(=O)c1c(NC(=O)c2cc3nc(-c4ccc(OC)cc4)cc(C(F)(F)F)n3n2)sc(C)c1C | inactive: 129% |
| CCc1cccc(NC(=O)c2c(C)oc3ncnc(N4CCCCC4)c23)c1 | inactive: 53% |
| O=C(Nc1ccc2nc(C3CC3)n(Cc3ccccc3)c(=O)c2c1)C1CC1 | inactive: 104% |
| CC(C)c1ccc(Nc2cc(C(=O)NCc3cccs3)c3ccccc3n2)cc1 | inactive: 92% |
| CCOC(=O)c1nnn(C(CC)C(=O)Nc2c(C)cccc2C)c1C(=O)OCC (centres undefined) | inactive: 90% |
| CCOC(=O)N1CCc2c(sc(NCc3cccs3)c2C(=O)Nc2cc(OC)ccc2OC)C1 | inactive: 73% |
| CCN(CC)C(=O)CSc1nnc2[nH]c(=O)cc(C)n12 | inactive: 71% |
| CC(C)CNC(=O)C1CCN(c2ccc(S(=O)(=O)N3CCOCC3)cc2)CC1 | inactive: 108% |
| Cc1ccc(NC(=O)N2CCN(c3nnc(C)c4c(C)n(-c5ccccc5)nc34)CC2)c(Cl)c1 | inactive: 99% |
| CCOc1ccc2nc(N3CCCC(C(=O)NCc4ccc(OC)cc4)C3)sc2c1 (centres undefined) | inactive: 85% |

| Structure (SMILES) | survival |
| --- | --- |
| CCc1ccccc1NC(=O)CCCN1C(=O)COc2ccc(C)cc21 | inactive: 74% |
| CCNc1nc(Oc2ccc(OCC(=O)OC)nn2)nc(N2CCOCC2)n1 | inactive: 70% |
| CCOc1ccc(-c2cccc(NS(=O)(=O)c3ccc(Cl)s3)c2)nn1 | inactive: 73% |
| COc1ccc2cc(-c3cn4c(n3)sc3cc(F)ccc34)c(=O)oc2c1 | inactive: 98% |
| CC(C)S(=O)(=O)c1oc(-c2ccc(F)cc2)nc1S(=O)(=O)c1ccc(F)cc1 | inactive: 26% |
| CC[N+](C)(C)Cc1ccco1 | inactive: 107% |
| Cc1cccc(OCC(=O)N(Cc2cccc(Cl)c2)Cc2ccco2)c1C | inactive: 85% |
| CCN(C1CCCCC1)S(=O)(=O)c1cccc(S(=O)(=O)N2CCCC2)c1 | inactive: 111% |
| Cc1ccc(S(=O)(=O)c2nc(-c3ccccc3)oc2N2CCCCCC2)cc1 | active: 6% |
| N#Cc1c(N)nc(SCc2ccccc2)c(C#N)c1-c1cccs1 | inactive: 100% |
| COc1ccccc1C(OC(=O)c1ccco1)C(=O)NCC1CCCO1 (centres undefined) | inactive: 105% |
| COc1cccc(C(=O)NCC(c2ccc(N(C)C)cc2)N2CCOCC2)c1OC (centres undefined) | inactive: 130% |
| Cc1ccccc1CSc1nc(-c2ccccc2)nc2c1Cc1c(CO)cnc(C)c1O2 | inactive: 118% |
| CCOC(=O)c1c(S(=O)(=O)N2CCCC(C(=O)Nc3cc(C)ccc3OC)C2)c(C)n(C)c1C (centres undefined) | inactive: 84% |
| CC(C)CCNC(=O)N1CCN(S(=O)(=O)c2ccc3c(ccn3C)c2)CC1 | inactive: 70% |
| CC1CCN(S(=O)(=O)c2ccc3c(c2)N(CC(=O)N2CCN(c4ccc(Cl)cc4)CC2)C(=O)CO3)CC1 | inactive: 75% |
| CCOc1ccc(CCNC(=O)CCc2cn(Cc3ccc(C)cc3)c3ccccc23)cc1 | inactive: 93% |
| CCCCNC(=O)CCn1c(=O)c2ccccc2n(Cc2cc(C)ccc2C)c1=O | inactive: 89% |
| COc1cccc(C2=NN(C(C)=O)C(c3cn(-c4ccccc4)nc3-c3cccs3)C2)c1 (centres undefined) | inactive: 140% |
| Cc1ccc(S(=O)(=O)N2CC=C(c3ccc(F)cc3)CC2)cc1 | inactive: 108% |
| CCCC(=O)Nc1nnc(SCc2cc(=O)c3cc(C)ccc3[nH]2)s1 | inactive: 70% |
| O=C(c1ccc(CSc2nc3ccncc3n2Cc2ccccc2F)cc1)N1CCCCCC1 | inactive: 91% |
| Cc1ccc(C)c(N2CCN(C(=O)c3cc(S(=O)(=O)N4CCCCC4)cn3C)CC2)c1 | inactive: 73% |

| Structure (SMILES) | survival |
| --- | --- |
| COc1ccc2[nH]cc(CCNC(=O)Nc3ccc(F)cc3)c2c1 | inactive: 95% |
| CC(C)c1ccc(Nc2cc(C(=O)NCCc3ccccc3)c3ccccc3n2)cc1 | inactive: 84% |
| Cc1csc(N(C)C(=O)CSc2nnc(COc3cccc4ccccc34)o2)n1 | inactive: 116% |
| O=C(Cn1ncc2c3ccccc3n(Cc3ccc(Cl)cc3)c2c1=O)NCCCc1ccccc1 | inactive: 88% |
| COc1ccc(Nc2oc(-c3ccc(COc4ccc(OC)cc4)o3)nc2C#N)cc1 | inactive: 86% |
| CCCCN(CC)c1ncnc2c1sc1nc(N3CCOCC3)c3c(c12)CCCC3 | inactive: 55% |
| Cc1ccc(C)c(S(=O)(=O)c2nnn3c2nc(N2CCCC2)c2sccc23)c1 | inactive: 88% |
| CCC(C)NC(=O)C1CCN(C(=O)c2cc3sccc3n2Cc2ccc(Cl)cc2)CC1 (centres undefined) | inactive: 71% |
| CCC12C=CCN3CCC4(c5ccc(OC)cc5NC4C(O)(C(=O)OC)C1OC(C)=O)C32 (centres undefined) | inactive: 100% |
| NCC1OCCc2ccccc21 (centres undefined) | inactive: 114% |
| CCc1ccccc1N1CC(c2nc3ccccc3n2CC(C)C)CC1=O (centres undefined) | inactive: 91% |
| CC(C)(C)C1CCc2nc(NC(=O)COc3ccc(F)cc3)sc2C1 (centres undefined) | inactive: 131% |
| CCCCN(CC)CCCn1cnc2c([nH]c3ccc(Cl)cc32)c1=O | inactive: 105% |
| CCC(=O)Nc1ccccc1-c1nc2ccccc2n(C(CC)C(=O)Nc2cccc(C(C)=O)c2)c1=O (centres undefined) | inactive: 108% |
| Cc1oc(-c2ccc(C(=O)Nc3ccc(F)cc3F)cc2)nc1COc1ccccc1 | inactive: 82% |
| CC(C)(C)c1ccc(OCCSc2nc(-c3cccs3)nc3cc(=O)[nH]n23)cc1 | inactive: 70% |
| O=C(N/N=C/c1ccco1)C1CN(S(=O)(=O)c2ccccc2)CCN1S(=O)(=O)c1ccccc1 (centres undefined) | inactive: 33% |
| CC(=O)Nc1ccc(-n2cc3c(c2-c2ccc(C)cc2)c(=O)n(C)c(=O)n3C)cc1 | inactive: 84% |
| CN(C)C(=O)c1ccc2c(c1)N(CC(=O)NCc1ccc(F)cc1)C(=O)C1CCCCN21 (centres undefined) | inactive: 81% |
| O=C1C(c2ccccc2)=C(c2ccccc2)C(=O)N1O | inactive: 119% |
